The campaign covered roughly 43,000 compounds. About 200 (0.47%) were called active. Not shown: some 12% with an inconclusive outcome. The call rests on the fitted dose curve; in most records, active means well fitted cell-killing curve with a large enough effect; inconclusive means small, poorly fitted or top-dose-only effect, or effect the other way; inactive means flat fitted curve, though single readings scatter. The list shows a part of the results.
Assay: Cell viability qHTS assay in S16 Pmp22-F2sN cells; further: nearly all actives have a fitted effect of over 65% in size
Conditions: S16 Pmp22-F2sN Schwann cells (luciferase reporters placed in the Pmp22 gene) viability, CellTiter-Glo, 24 h; series mostly up to 57.5 µM; activity change, negative = cytotoxicity: at the top concentration
Method in brief: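 CellTiter-Glo counter-screen, qHTS, 1536-well. Cells: S16(c9) Pmp22-F2sN, 500-1,000/well in DMEM + 10% FBS. Cpd 23 nL pin transfer, 24 h, 37C/5% CO2. Read: luminescence, CCD imager.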
On the % scale 0 is the no-effect control and ±100 the full control effect.

Structure (SMILES) | activity change, negative = cytotoxicity
COc1ccc2[nH]c3c(c2c1)CCN(C(=O)CCC1CCCC1)C3c1ccc(F)cc1 (stereo not drawn) | inactive: -10.1%
O=C(CC1N=C2c3ccccc3N=C(SCc3ccc(F)cc3)N2C1=O)NCCc1ccccc1 (stereo not drawn) | inactive: -22.6%
O=C(CSc1nccn1-c1ccc(F)cc1)Nc1nc2ccccc2s1 | inactive: -12.9%
Cc1cccc(Cn2c(-c3ccccc3)nc3ccccc32)c1 | inactive: -15.2%
COc1ccc(Cl)cc1NCc1nnc2n1CCCCC2 | inactive: -1.79%
COc1ccc(NC(=O)c2oc3ccccc3c2NC(=O)c2cc(=O)c3cc(Cl)ccc3o2)cc1 | inactive: 5.04%
COC(=O)c1c(NC(=O)c2ccc(OC)cc2OC)sc2c1CCCCC2 | inactive: 6.29%
COc1ccc(CC(C)NS(=O)(=O)c2ccc3c(c2)CCN3S(C)(=O)=O)cc1OC (stereo not drawn) | inactive: -2.52%
COc1ccc(NC(=O)C2CCCN(S(=O)(=O)c3c(C)[nH]c(=O)[nH]c3=O)C2)cc1OC (stereo not drawn) | inactive: -18.6%
CCn1c(=O)c2cc(C(=O)NCc3cc(OC)ccc3OC)sc2c2ccccc21 | inactive: 9.34%
Cc1ccc(NC(=O)C2CCCN(c3ncnc4c3nc3n4CCCCC3)C2)c(Br)c1 (stereo not drawn) | inactive: 8.87%
CC(C)(C)c1ccc(C(=O)NCC(=O)OCc2cc(=O)n3nc(C4CC4)sc3n2)cc1 | inactive: 2.81%
O=C(Nc1sc2c(c1C(=O)NCc1ccco1)CCCC2)c1cc(=O)c2cc(Cl)ccc2o1 | inactive: 5.19%
Cc1nnc(N2CCN(C(=O)NCCC(C)C)CC2)c2nn(-c3ccc(Cl)cc3)c(C)c12 | inactive: 1.12%
Cc1cc(C)c2nc(C)cc(Nc3cccc(C(=O)O)c3)c2c1 | inactive: -1.24%
CCOc1cc(C(=O)Nc2cc3c(cc2N2CCCC2)n(C)c(=O)c(=O)n3C)cc(OCC)c1OCC | inactive: -2.92%
Cc1cccc(C(=O)Nc2cc3c(cc2C)n(C)c(=O)n3C)c1 | inactive: 3.93%
CCC(=O)N1CCc2cc(Br)cc(S(=O)(=O)NCCc3cccc(C)c3)c21 | inactive: 4.14%
CC(=O)N1CCc2cc(S(=O)(=O)NC(Cc3ccccc3)C(=O)NCc3ccccc3)ccc21 (stereo not drawn) | inactive: -1.38%
COCc1nc2ccccc2n1Cc1ccc(C(C)(C)C)cc1 | inactive: -28.7%
CC(=O)Nc1ccc(NC(=O)c2ccc3c(c2)N(Cc2cccc(Cl)c2)C(=O)c2ccccc2S3=O)cc1 (stereo not drawn) | inactive: -8.94%
Cc1ccc(Cn2c(=O)n(Cc3ccccc3)c(=O)c3oc4ccccc4c32)cc1 | inactive: -0.846%
CC(=O)N1CCC(N(Cc2ccc(C)o2)C(=O)Nc2cccc(C(F)(F)F)c2)CC1 | inactive: 0.329%
Cc1ccc2c(c1)-c1nc(-c3ccc4c(c3)NC(=O)CO4)cc(-c3ccccc3)c1CO2 | inactive: 18.8%

Structure (SMILES) | activity change, negative = cytotoxicity
Cc1ccc(C)c(NC(=O)CN2C(=O)CCc3cc(S(=O)(=O)N4CCCCC4)ccc32)c1 | inactive: -11.2%
O=C(CCCCn1c(=O)c2ccccc2n(Cc2cccc(F)c2)c1=O)NCCc1ccccc1 | inactive: 26.7%
COc1ccccc1NC(=O)Cn1c(C)cc(C)c(C#N)c1=O | inactive: -4.13%
COc1ccc(NC(=O)Nc2cc(-c3cn4cccnc4n3)ccc2C)cc1 | inactive: 1.61%
CC(=O)N1CCc2c(sc3c2c(=O)n(-c2ccccc2)c(=O)n3CC(=O)c2ccccc2)C1 | inactive: 3.24%
COc1cccc(CSc2nc3ccncc3n2CC(=O)Nc2ccc(OC)c(OC)c2OC)c1 | inactive: -6.92%
CCC1CN(C(=O)N2CCC(C(=O)NCCc3ccc(OC)cc3OC)CC2)c2cc(C)ccc2O1 (stereo not drawn) | inactive: -23.3%
Cc1cccc(OCc2nc(CC(=O)Nc3ccc(Cl)cc3)cs2)c1 | inactive: 1.19%
Cc1cc(Nc2ccc(Br)cc2)nc(C)n1 | inactive: -0.569%
Cc1cccc(C)c1-n1ncc(C(=O)NCCCN2CCC(C)CC2)c1C1CCN(C(=O)OC(C)(C)C)CC1 | inactive: -4.32%
COc1cccc(NC(=O)CCN2C(=O)c3ccccc3Sc3ncccc32)c1 | inactive: 3.8%
Cc1cc(C)nc(-n2nc(C)c3c2N(Cc2ccccc2F)C(=O)CC3c2ccc(Cl)cc2)n1 (stereo not drawn) | inactive: -25.6%
CCc1ccccc1NC(=O)C1CCN(S(=O)(=O)c2cn(C)cn2)CC1 | inactive: -3.45%
CCOC(=O)c1sc2ccccc2c1S(=O)(=O)NCc1ccccc1OC | inactive: 9.15%
COc1ccccc1CNC(=O)Cc1csc2nc(-c3ccc(F)cc3)cn12 | inactive: 5.09%
CCc1cc2c(cc3c(=O)n(CC(=O)NC(C)c4ccccc4)ncn32)s1 (stereo not drawn) | inactive: -0.551%
Cn1ncc2c(N3CCN(c4ccc(F)cc4)CC3)ncnc21 | inactive: -7.99%
O=C(Cc1ccc(-c2ccccc2)cc1)NCCS(=O)(=O)N1CCN(c2ccc(F)cc2)CC1 | inactive: -0.573%
COc1cc(-c2nc3sccn3c2Nc2c(C)cccc2C)ccc1O | inactive: 2.46%
Cc1c(CCNC(=O)c2c(F)cccc2F)sc2nc(-c3ccc(F)cc3)nn12 | inactive: 5.17%
CCOc1ccc(CCn2c3c(c(=O)[nH]c2=O)C(NC(=O)c2cccc(F)c2)(C(F)(F)F)C(=O)N3)cc1OCC (stereo not drawn) | inactive: 7.79%
CC(=O)N1CCCC1c1nc2ccccc2n1Cc1ccccc1Cl (stereo not drawn) | inactive: 1.98%
O=C1Cc2cc(S(=O)(=O)N3CCN(c4cccc(Cl)c4)CC3)ccc2N1 | inactive: -0.126%
CC(=O)N1CCCc2ccc(NS(=O)(=O)c3cccc(Cl)c3)cc21 | inactive: -2.45%
